# Assay results: the supplement of paper PMC12217912
# Some of the results follow. The full chains were built here from the parent and the listed change. Values near 0.05 are background.
# B1: TEV protease; numbered along this chain (parent)
# chain: MGESLFKGPRDYNPISSSICHLTNESDGHTTSLYGIGFGPFIITNKHLFRRNNGTLVVQSLHGVFKVKDTTTLQQHLVDGRDMIIIRMPKDFPPFPQKLKFREPQREERICLVTTNFQTKSMSSMVSDTSCTFPSGDGIFWKHWIQTKDGQCGSPLVSTRDGFIVGIHSASNFTNTNNYFTSVPKNFMELLTNQEAQQWVSGWRLNADSVLWGGHKVFMVKPEEPFQPVKEATQL
# Variants of: B1
# Experiment: raw area under fraction-flipped curve 0-4 h after induction (AUC4h, not background-subtracted), DNA-recorder readout of cleavage of the substrate (dimensionless); higher = more cleavage of the substrate by the protease variant
# Conditions: temperature: 34 °C; time window: 0-4 h after rhamnose induction
# Method: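 In vivo DNA recorder in E. coli TOP10(DE3) ΔrhaA at 34 °C. Each TEVp single-site mutant (parent TEVp 0) is paired with a single-site variant of the 7-mer TEVs (canonical ENLYFQ|S). The substrate sits between flexible linkers in a Bxb1-sfGFP-TEVs-SsrA fusion, so cleavage stabilises Bxb1 and speeds flipping of a recombination array, read by NGS. The value is the raw area under the fraction-flipped curve over 0-4 h after rhamnose induction (AUC4h), with ≥20 reads per time point. It is not background-subtracted; inactive controls average about 0.047.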
# 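Also: Bxb1 expression induced with 0.2% (w/v) L-rhamnose at OD600 near 0.5, cultures sampled hourly, flipped fraction per protease–substrate barcode pair counted by paired-end Illumina sequencing.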
Variant,area with substrate EALYFQS,area with substrate ECLYFQS,area with substrate EDLYFQS,area with substrate EELYFQS,area with substrate EGLYFQS,area with substrate EHLYFQS,area with substrate EILYFQS,area with substrate EKLYFQS,area with substrate ELLYFQS,area with substrate EMLYFQS,area with substrate EPLYFQS,area with substrate EQLYFQS,area with substrate ERLYFQS,area with substrate ESLYFQS,area with substrate EVLYFQS,area with substrate EWLYFQS,area with substrate EYLYFQS,area with substrate EFLYFQS,area with substrate ETLYFQS
Q146K,0.119,0.177,0.147,0.102,0.11,0.114,0.0986,0.113,0.0837,0.112,0.0867,0.0984,0.102,0.105,0.11,0.105,0.0895,,
Q146M,0.159,0.141,0.126,,0.0895,,0.155,0.122,,,0.139,0.152,0.127,0.233,0.116,,0.165,0.16,
Q146T,0.119,0.0998,0.118,0.115,0.102,0.104,0.0748,0.0595,,0.105,,0.12,0.0948,0.0959,0.0927,0.0911,0.0912,0.112,
T147Q,0.0641,0.0654,0.0763,0.0615,,0.0699,,0.06,,,0.083,0.0413,0.0659,0.0663,0.0744,,,,
K148E,0.0875,0.106,0.0856,0.127,0.0944,0.109,0.0844,0.0884,,0.0883,0.102,0.107,0.0879,0.0828,0.0859,0.0787,,0.115,0.0767
K148Q,0.122,0.0877,0.0825,,0.103,0.136,0.113,0.0938,,,0.0533,,,0.0807,0.0876,0.108,0.152,,0.145
K148R,0.13,0.0997,0.126,0.156,0.125,,0.104,,0.0812,0.109,0.115,,,0.111,,0.101,0.107,0.115,
D149Y,0.0813,0.0745,0.106,0.0858,0.0645,0.0807,0.0625,,0.0705,0.0783,0.0746,0.0671,0.0783,0.0682,,,0.0809,0.0649,0.0799
G150H,0.0593,0.0678,0.0637,0.0699,0.0556,0.0641,0.055,0.0559,0.05,0.0628,,0.0598,0.0586,0.0578,0.054,0.0712,0.0544,,0.0638
G150V,0.0759,0.0694,0.0769,0.0616,0.0585,,0.0582,0.0663,0.0583,0.0592,0.0645,0.0558,0.0546,0.0545,0.0571,0.06,0.0503,0.0571,0.0559
Q151E,0.127,0.118,0.131,0.17,,,0.0752,0.101,0.0962,0.141,0.117,0.131,0.0814,0.0959,,,,,0.112
Q151M,0.119,0.132,0.117,,0.0903,,0.107,,,,0.102,,,0.13,0.107,0.104,0.0671,0.103,
C152P,0.0528,0.0549,0.0561,,0.0595,,0.0562,0.0616,,,,0.0566,0.0413,0.0517,0.0575,0.0635,0.06,0.0833,0.0576
S154H,0.123,0.103,0.11,0.12,0.0708,0.108,0.0884,0.0908,0.0934,,0.0974,,0.0966,0.0984,0.0817,,,,
S154W,0.0821,0.0774,0.0867,0.076,0.061,,0.0691,,,0.0504,0.0843,,0.0817,0.0648,0.0672,,0.0848,,
P155D,0.0508,0.0469,0.0457,0.0422,0.0455,,0.0414,0.0392,,0.0371,,,0.0589,0.0561,0.0488,0.0542,0.0539,,0.0376
P155K,0.0461,0.0573,0.0593,0.0564,,0.0576,0.0517,0.0484,0.0533,0.0605,0.0681,0.0466,,0.0593,,0.0441,,0.0538,0.046
L156E,0.0628,0.0446,0.0596,0.0408,0.0601,0.0489,0.048,0.0257,0.0816,0.0564,0.0656,0.095,0.0556,0.058,0.0513,,0.051,,
L156H,0.0573,0.0351,0.0458,0.0678,,0.0672,0.0823,0.0668,0.0558,0.0585,0.0562,,0.0489,0.0597,0.0585,0.0746,,0.0856,0.0589
L156Q,0.0608,0.057,0.0883,,0.0545,0.0558,0.0535,0.0522,0.0566,0.0706,0.0616,,0.0517,0.047,0.0604,0.0534,0.0498,,
V157D,0.051,0.0557,0.0638,0.0477,0.0458,,0.0416,0.0452,0.0302,0.0438,0.0567,0.0444,0.0368,0.0451,0.0502,0.0659,0.0515,,0.0505
V157L,0.104,0.0863,0.134,0.111,,0.0936,0.0742,,,0.09,0.111,0.0858,0.0993,0.0984,0.0867,0.126,0.117,,
V157S,0.08,0.0673,0.0964,,0.097,0.077,,0.0602,0.0574,,,0.0965,0.0691,0.0748,0.0545,,0.0696,0.0553,0.0751
S158G,0.145,0.103,0.108,0.123,0.107,0.0853,0.104,0.118,0.0761,0.116,0.0929,,0.106,0.106,0.0791,,0.143,,0.136
